Structures can show the parent of a compound that is named as a salt. ± gives the standard deviation of the averaged measurements. The full ranking holds about 1,300 compounds; the median of “normalised cell viability” is about 1, and the lowest 2% start at about 0.14. This is one part of the list.

This assay relates to V-C8 (BRCA2-deficient hamster cells). Nature of the assay: normalised cell viability (fraction of plate median); higher = more viable cells (less toxic). As to conditions: 5 µM. A digest of the protocol: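 Hamster V-C8 cells with and without restored BRCA2 were exposed in 96-well plates to library drugs at 5 μM for 3 days (screen 1) or 6 days (screen 2). Cell viability was scored by resazurin assay, then median-plate normalised, averaging triplicate wells.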

As to `CCC1(c2ccccc2)NC(=O)N(C)C1=O` (stereo unspecified) [Mephenytoin], the normalised cell viability was found to be 1.09 ± 0.041 (treatment time: 3 days) and 1.17 ± 0.38 (treatment time: 6 days).
Taken in the same sequence, the figures for `CCc1c(C)[nH]c2c1C(=O)C(CN1CCOCC1)CC2` (stereo unspecified) [Molindone hydrochloride] were 1.09 ± 0.1 and 1.08 ± 0.087.
Turning to `Cc1ncc(CO)c(CO)c1O` [Pyridoxine hydrochloride], the normalised cell viability by setting is: (treatment time: 3 days) 1.09 ± 0.016; (treatment time: 6 days) 1.12 ± 0.017.
`Cc1cc(C(C)(C)C)c(O)c(C)c1CC1=NCCN1` [Oxymetazoline hydrochloride]: the normalised cell viability is 0.96 ± 0.02 (treatment time: 3 days) and 1.01 ± 0.068 (treatment time: 6 days).
`CN(C)CCCN1c2ccccc2Sc2ccccc21` [Promazine hydrochloride]: the normalised cell viability (treatment time: 3 days) worked out at 0.989 ± 0.078 and the normalised cell viability (treatment time: 6 days) was 0.91 ± 0.061.
`NS(=O)(=O)c1cc(C(=O)O)cc(N2CCCC2)c1Oc1ccccc1` [Piretanide] returned a normalised cell viability (treatment time: 3 days) of 0.93 ± 0.097 and a normalised cell viability (treatment time: 6 days) of 1.06 ± 0.15.
With `CC(C)(C(=O)O)c1ccc(C(O)CCCN2CCC(C(O)(c3ccccc3)c3ccccc3)CC2)cc1` (stereo unspecified) [Fexofenadine HCl], the normalised cell viability reads like this: (treatment time: 3 days) 1.09 ± 0.02; (treatment time: 6 days) 1.04 ± 0.046.
For `COc1ccc([C@@H]2CC(=O)c3c(O)cc(O[C@@H]4O[C@H](CO[C@@H]5O[C@@H](C)[C@H](O)[C@@H](O)[C@H]5O)[C@@H](O)[C@H](O)[C@H]4O)cc3O2)cc1O` [Hesperidin] the same measures were 1.05 ± 0.13 and 1.13 ± 0.053.
Regarding `COC(c1ccccc1)(c1ccccc1)[C@H](Oc1nc(C)cc(C)n1)C(=O)O` [Ambrisentan], the normalised cell viability runs as follows: (treatment time: 3 days) 1.04 ± 0.029; (treatment time: 6 days) 1.04 ± 0.033.
Regarding `Cc1c(C)c2c(c(C)c1O)CCC(C)(COc1ccc(CC3SC(=O)NC3=O)cc1)O2` (stereo unspecified) [Troglitazone], the normalised cell viability is, setting by setting: (treatment time: 3 days) 0.68 ± 0.04; (treatment time: 6 days) 0.588 ± 0.04.
`CC(C(=O)O)c1ccc2c(c1)Cc1cccnc1O2` (stereo unspecified) [Pranoprofen]: the normalised cell viability is, setting by setting: (treatment time: 3 days) 1.11 ± 0.043; (treatment time: 6 days) 1.05 ± 0.046.
With `CSc1ccc2c(c1)C(N1CCN(C)CC1)Cc1ccccc1S2` (stereo unspecified) [Methiothepin maleate], the normalised cell viability is, setting by setting: (treatment time: 3 days) 0.293 ± 0.035; (treatment time: 6 days) 0.401 ± 0.028.
In turn, `COC(=O)Nc1nc2cc(C(=O)c3ccccc3)ccc2[nH]1` [Mebendazole] had a normalised cell viability (treatment time: 3 days) of 0.164 ± 0.0056 and a normalised cell viability (treatment time: 6 days) of 0.13 ± 0.0086.
In the case of `CC(C)c1ccc2oc3nc(N)c(C(=O)O)cc3c(=O)c2c1` [Amlexanox], the normalised cell viability reads like this: (treatment time: 3 days) 0.933 ± 0.034; (treatment time: 6 days) 1.03 ± 0.089.
For `CC1(C)S[C@@H]2[C@H](NC(=O)[C@H](NC(=O)N3CCNC3=O)c3ccccc3)C(=O)N2[C@H]1C(=O)O` [Azlocillin sodium salt] the same measures were 1.01 ± 0.015 and 0.988 ± 0.092.
Taken in the same sequence, the figures for `Clc1cnccn1` [2-Chloropyrazine] were 1.03 ± 0.019 and 1.02 ± 0.016.
Taken in the same sequence, the figures for `NCCNCCNCCNCCN` [Tetraethylenepentamine pentahydrochloride] were 0.975 ± 0.061 and 0.874 ± 0.032.
In the case of `Cc1cc2c(cc1S(N)(=O)=O)S(=O)(=O)CCC2` [Meticrane], the normalised cell viability runs as follows: (treatment time: 3 days) 1.01 ± 0.021; (treatment time: 6 days) 1.03 ± 0.017.
Taken in the same sequence, the figures for `CN(C)/N=N/c1[nH]cnc1C(N)=O` [Dacarbazine] were 0.948 ± 0.055 and 0.964 ± 0.012.
Taken in the same sequence, the figures for `CC[N+](C)(C)Cc1ccccc1Br` [Bretylium tosylate] were 1.01 ± 0.025 and 1.04 ± 0.058.
For the compound `C[N+](C)(C)CCCCCC[N+](C)(C)C` [Hexamethonium dibromide dihydrate], the normalised cell viability runs as follows: (treatment time: 3 days) 1.07 ± 0.06; (treatment time: 6 days) 1.05 ± 0.046.
For `CN1C(C)(C)CCCC1(C)C` [Pempidine tartrate] the same measures were 0.993 ± 0.026 and 1.048 ± 0.004.
For `Cc1onc(-c2c(Cl)cccc2Cl)c1C(=O)N[C@@H]1C(=O)N2[C@@H]1SC(C)(C)[C@@H]2C(=O)O` [Dicloxacillin sodium salt hydrate] the same measures were 1.03 ± 0.012 and 1.02 ± 0.031.
Taken in the same sequence, the figures for `CCOC(=O)[C@H](CCc1ccccc1)N[C@@H](C)C(=O)N1Cc2ccccc2C[C@H]1C(=O)O` [Quinapril HCl] were 1.02 ± 0.022 and 0.97 ± 0.018.
Compound `CC(CCc1ccccc1)NCC(O)c1ccc(O)c(C(N)=O)c1` (stereo unspecified) [Labetalol hydrochloride] yielded a normalised cell viability (treatment time: 3 days) of 1.06 ± 0.068 and a normalised cell viability (treatment time: 6 days) of 0.998 ± 0.06.
Taken in the same sequence, the figures for `O=C(O)c1cccnc1Nc1cccc(C(F)(F)F)c1` [Niflumic acid] were 1.07 ± 0.032 and 1.03 ± 0.039.
Taken in the same sequence, the figures for `COc1ccc(C(Cl)=C(c2ccc(OC)cc2)c2ccc(OC)cc2)cc1` [Chlorotrianisene] were 1.06 ± 0.064 and 0.996 ± 0.11.
For `Cc1oncc1C(=O)Nc1ccc(C(F)(F)F)cc1` [Leflunomide] the same measures were 0.904 ± 0.065 and 0.959 ± 0.043.
Turning to `Fc1ccc(C(c2ccc(F)cc2)N2CCN(C/C=C/c3ccccc3)CC2)cc1` [Flunarizine dihydrochloride], the normalised cell viability came out at 0.841 ± 0.1 (treatment time: 3 days) and 0.934 ± 0.049 (treatment time: 6 days).
Take `N=C(N)c1ccc(OCCCCCOc2ccc(C(=N)N)cc2)cc1` [Pentamidine isethionate]: the normalised cell viability was found to be 0.596 ± 0.07 (treatment time: 3 days) and 0.597 ± 0.085 (treatment time: 6 days).
Taken in the same sequence, the figures for `CCCCC(=O)O[C@H]1CC[C@H]2[C@@H]3CCc4cc(O)ccc4[C@H]3CC[C@]12C` [Estradiol Valerate] were 0.984 ± 0.019 and 1.01 ± 0.16.
For `COc1cccc2c1C(=O)c1c(O)c3c(c(O)c1C2=O)C[C@@](O)(C(=O)CO)C[C@@H]3O[C@H]1C[C@H](N)[C@H](O)[C@H](C)O1` [Doxorubicin hydrochloride] the same measures were 0.127 ± 0.0054 and 0.113 ± 0.0072.
Taken in the same sequence, the figures for `CCC(=O)O[C@@H](O[P@](=O)(CCCCc1ccccc1)CC(=O)N1C[C@H](C2CCCCC2)C[C@H]1C(=O)O)C(C)C` [Fosinopril] were 1.15 ± 0.043 and 1.03 ± 0.16.

These data come from the supplement of paper PMC6609913.
